Assay results: PubChem BioAssay AID1030 (National Center for Advancing Translational Sciences (NCATS), 2008)
Out of some 220,000 compounds screened, about 16,000 (7.3%) were called active. This list was built around the results that the source calls inconclusive (neither active nor inactive); the mix of calls is not that of the screen. The call rests on the fitted dose curve; in most records, active means well fitted inhibition curve with a large enough effect (not every such curve was filed as active); inconclusive means small, poorly fitted or top-dose-only effect, or another doubt; inactive means no such curve, though single readings can be large or run the other way. No potency is given beside an inconclusive call; the fits are too rough.

Molecular target: Aldehyde dehydrogenase 1A1 (Homo sapiens) (UniProt P00352)
Sequence of UniProt P00352 (P00352 whole entry, looked up): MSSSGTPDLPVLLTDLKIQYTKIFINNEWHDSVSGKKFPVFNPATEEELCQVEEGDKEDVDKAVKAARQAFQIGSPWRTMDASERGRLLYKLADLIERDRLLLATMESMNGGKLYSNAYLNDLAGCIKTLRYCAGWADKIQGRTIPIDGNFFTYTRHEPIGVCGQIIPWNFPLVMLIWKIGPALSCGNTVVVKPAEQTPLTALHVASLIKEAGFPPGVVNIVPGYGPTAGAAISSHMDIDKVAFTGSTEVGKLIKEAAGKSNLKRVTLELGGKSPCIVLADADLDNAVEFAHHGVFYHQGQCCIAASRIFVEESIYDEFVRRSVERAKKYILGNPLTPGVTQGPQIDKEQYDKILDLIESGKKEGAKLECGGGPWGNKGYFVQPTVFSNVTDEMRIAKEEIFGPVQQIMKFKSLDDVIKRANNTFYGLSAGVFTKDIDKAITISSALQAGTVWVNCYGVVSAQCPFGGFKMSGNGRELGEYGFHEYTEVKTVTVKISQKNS
Assay: qHTS Assay for Inhibitors of Aldehyde Dehydrogenase 1 (ALDH1A1)
Conditions: Purified ALDH1A1, NADH fluorescence, propionaldehyde substrate; series mostly up to 75.3 µM
Potency means the concentration at half of the fitted maximal effect; tags describe the fitted curve by direction and shape.

Compound	Potency
CC(=O)Nc1ccc2c(c1)nc1n2CCN(C(C)c2ccccc2)C1 (stereo not drawn)	inconclusive [inhibitor, partial curve]
O=C(COC(=O)C1CCN(/C=C/C(=O)C(F)(F)F)CC1)Nc1cccc(F)c1	inconclusive [inhibitor, single point]
CCCn1c(NC(=O)C23CC4CC(CC(O)(C4)C2)C3)nc2ccccc21	inconclusive [inhibitor, single point]
COC(=O)Cc1cc(=O)oc2c(C)c(O)ccc12	inconclusive [inhibitor, partial curve]
COc1cc(OC)c(CN2CCN(c3ccc(F)cc3)CC2)cc1Br	inactive
CCOC(=O)c1c(C)[nH]c(C)c1C(=O)CSc1nncs1	inactive
COCCCN1CN(Cc2ccccc2)CNC1=S	active: 8.91 µM
C=CCCCCCCCC(=O)OC	active: 17.8 µM
COc1ccc(CCN2C(=O)C3C(C2=O)C2C=CC3C23CC3)cc1OC (stereo not drawn)	inconclusive [inhibitor, single point]
Cc1cc(C)c2nc(SCC(=O)N(C)C3CCS(=O)(=O)C3)cc(C)c2c1 (stereo not drawn)	inactive
O=C(c1ccc2c(c1)N(Cc1ccccc1)CCS2)N1CCCCC1	inconclusive [inhibitor, partial curve]
FC(F)(F)c1nnc2c(Sc3ccccc3)nc3ccc(Cl)cc3n12	inconclusive [inhibitor, partial curve]
C=CCNC(=O)C(=O)N/N=C/c1cccc(Br)c1	inactive
NC(=O)c1cc(Br)cc2c3c([nH]c12)CCCC3	inconclusive [inhibitor, single point]
COc1ccc(-c2[nH]c(-c3ccc4c(c3)OCO4)nc2-c2ccccc2)cc1	inconclusive [inhibitor, partial curve]
CC12CN3CCN(CC(C3)/C1=N\NC(=O)Nc1cccc(Cl)c1)C2	inactive
O=[N+]([O-])c1cc([N+](=O)[O-])c(N2CCOCC2)cc1NCc1ccccc1	inconclusive [inhibitor, single point]
COc1ccc(NC(=O)c2cc3c(=O)n(C)c4ccccc4c3s2)cc1OC	inactive
O=C1c2ccccc2C(=O)N1c1ccccc1S(=O)C(F)(F)F (stereo not drawn)	inactive
Cn1c(NC(=O)/C=C/c2ccco2)cc(=O)n(C)c1=O	inconclusive [inhibitor, single point]
CCCNC(=O)c1c(N)n(-c2ccc(S(N)(=O)=O)cc2)c2nc3ccccc3nc12	inconclusive [inhibitor, partial curve]
COc1ccc2c(C#N)c3ccccn3c2c1	inactive
CO[C@@]1(NC(=O)Cc2cccs2)C(=O)N2C(C(=O)O)=C(COC(N)=O)CS[C@@H]21	inactive
COc1ccc(/C=C/C(=O)OCCNC(=O)c2ccncc2)cc1OC	inconclusive [inhibitor, single point]

Compound	Potency
CONc1nc2nonc2nc1NOC	inactive
CNc1nc(-c2c[nH]c3ccccc23)cs1	active: 7.08 µM
COc1ccc(C(c2c(C)[nH]n(C(N)=S)c2=O)C(C#N)C#N)cc1 (stereo not drawn)	active: 12.6 µM
CC1=C(C(=O)OCC(C)C)C(c2ccc(Br)s2)NC(=O)N1 (stereo not drawn)	inactive
O=C(CN1CCN(S(=O)(=O)c2ccc(F)cc2)CC1)Nc1ccc(Cl)c(C(F)(F)F)c1	inconclusive [inhibitor, single point]
O=C(O)[C@@H]1[C@@H]2C[C@@H]2CN1c1ncccc1[N+](=O)[O-]	inactive
Cc1c(O)nc(SC2CC(=O)N(c3ccccc3)C2=O)[nH]c1=O (stereo not drawn)	inconclusive [inhibitor, single point]
CSCc1ccc(C(=O)Nc2ccc(C(N)=O)cc2)cc1	inactive
CN1CC=C2C(C#N)=C(N)C(C#N)(C#N)[C@H](c3cccc(Cl)c3)C2C1 (stereo partly drawn)	inconclusive [inhibitor, partial curve]
O=C(c1cc2cc(Br)ccc2o1)N1CCCCC1	active: 22.4 µM
CC1C2CC(C/C2=N/NC(=O)c2cccs2)C1(C)C (stereo not drawn)	inconclusive [inhibitor, single point]
COc1cc(-c2nnc(SCC(=O)N3c4ccccc4Sc4ccccc43)o2)cc(OC)c1OC	inactive
NS(=O)(=O)c1cccc(NC(=O)COC(=O)CCSc2ccccc2)c1	inconclusive [inhibitor, single point]
CC(C)N(Cc1nc(-c2ccccc2)no1)C(=O)c1ccc2c(c1)OCO2	inconclusive [inhibitor, single point]
O=c1c(-c2ccc(F)cc2)nc2cnc(Oc3ccccc3)nc2n1C[C@H]1CCCO1	inconclusive [inhibitor, partial curve]
Cc1ccc(S(=O)(=O)N(Cc2ccccc2)c2ccccc2C(=O)Nc2ccccc2C(=O)NCc2ccco2)cc1	inconclusive [inhibitor, partial curve]
CC(C)N(C(=O)CSc1nc(COc2ccccc2)nc2ccccc12)C(C)C	inconclusive [inhibitor, single point]
Nn1c(SCC(=O)Nc2ccc(F)cc2F)nnc1-c1cccnc1	inconclusive [inhibitor, single point]
CC1(OC(=O)CCc2ccccc2)C(=O)C=C2C=C(c3ccc(C#N)cc3)OC=C2C1=O (stereo not drawn)	inconclusive [inhibitor, single point]
CS(=O)Cc1cc(Sc2ccccc2)nc(-c2cccnc2)n1 (stereo not drawn)	inconclusive [inhibitor, partial curve]
Cc1ccc(/C=N/N2CCOCC2)s1	inactive
Cn1cnnc1SCC(=O)Nc1ccccc1Sc1ccccc1	inconclusive [inhibitor, single point]
Cc1[nH]c(=O)c(C#N)cc1-c1ccccc1	inconclusive [inhibitor, single point]
Cc1nn(-c2ccccc2)c2c1/C(=N/O)CC(C)(C)C2	inactive
